This note sets out measurements from the antibiotic and cytotoxicity screens of Wong et al. (2023).

The test system of one assay is HSkMC. Briefly: cytotoxicity call (relative viability < 0.9). Conditions: 10 µM.
Another assay relates to HepG2. Briefly: cytotoxicity call (relative viability < 0.9). To be noted: 10 µM.
In another assay the test system is S. aureus RN4220. Briefly: growth inhibition call (relative growth <= 0.2). Conditions: 50 µM.

Each structure is given as a SMILES string. Some of the results follow.

In the case of `CCOC(=O)CC(=O)N1CCSC1COc1ccccc1OC` (centres undefined), the cytotoxicity call in the assay with HSkMC is “inactive”. Besides, in the assay on HepG2, the cytotoxicity call is “active”. Besides, the growth inhibition call in the assay on S. aureus RN4220 was “inactive”.
In the case of `CC(C)NC(=O)Nc1ccc2c(c1)C(=O)N([C@H](C)CO)C[C@H](C)[C@H](CN(C)Cc1ccc(C(=O)O)cc1)O2`, the cytotoxicity call in the assay on HSkMC and in the assay on HepG2 was “inactive” each time. The growth inhibition call in the assay with S. aureus RN4220 is “inactive”.
Take `Cc1noc(C)c1S(=O)(=O)N(C)C[C@H]1Oc2c(NC(=O)c3cnccn3)cccc2C(=O)N([C@H](C)CO)C[C@H]1C`: the cytotoxicity call in the assay with HSkMC and in the assay on HepG2 was “inactive” throughout. In addition, the growth inhibition call in the assay on S. aureus RN4220 was “inactive”.
Turning to `C[C@H]1CN([C@@H](C)CO)S(=O)(=O)c2ccc(C#CCN(C)C)cc2O[C@H]1CN(C)C(=O)C1CCCCC1`, the cytotoxicity call with HSkMC and in the assay with HepG2 was “inactive” throughout. The growth inhibition call with S. aureus RN4220 was “inactive”.
As for `CN(C)c1ccc(NC(=O)CN)cc1`, the cytotoxicity call with HSkMC is “inactive”. For the same compound, the cytotoxicity call with HepG2 was “active”. The growth inhibition call in the assay with S. aureus RN4220 was “inactive”.
Consider `C[C@H](CO)N1C[C@H](C)[C@@H](CN(C)Cc2cccc3c2OCCCO3)OCc2ccccc2-c2c(n(C)c3ccccc23)C1=O`, for which the cytotoxicity call in the assay with HSkMC and in the assay with HepG2 was “inactive” throughout. In addition, the growth inhibition call with S. aureus RN4220 was “inactive”.
Turning to `C[C@@H]1CN([C@H](C)CO)C(=O)c2cccc(NC(=O)c3ccc(-c4nccs4)cc3)c2O[C@@H]1CN(C)C(=O)Nc1ccc(C(F)(F)F)cc1`, in the assay with HSkMC, the cytotoxicity call was “active”. Moreover, the cytotoxicity call in the assay on HepG2 is “inactive”. For the same compound, in the assay on S. aureus RN4220, the growth inhibition call is “inactive”.
`Cc1noc(C)c1S(=O)(=O)Nc1ccc2c(c1)C(=O)N([C@H](C)CO)C[C@@H](C)[C@@H](CN(C)S(=O)(=O)c1cccs1)O2`: the cytotoxicity call with HSkMC and in the assay with HepG2 was “inactive” throughout. Besides, the growth inhibition call with S. aureus RN4220 is “inactive”.
Turning to `Cc1ccc(S(=O)(=O)Nc2ccc3c(c2)C(=O)N([C@@H](C)CO)C[C@@H](C)[C@H](CN(C)Cc2ccc(C(F)(F)F)cc2)OCCCC[C@@H](C)O3)cc1`, in the assay on HSkMC, the cytotoxicity call is “inactive”. For the same compound, the cytotoxicity call with HepG2 is “active”. Also, the growth inhibition call in the assay with S. aureus RN4220 is “inactive”.
Consider `COc1ccc(NC(=O)Nc2cccc3c2O[C@@H](CN(C)Cc2ccc(-c4ccccc4)cc2)[C@H](C)CN([C@H](C)CO)C3=O)cc1`, for which the cytotoxicity call in the assay with HSkMC was “inactive”. Also, in the assay with HepG2, the cytotoxicity call was “active”. Also, the growth inhibition call in the assay with S. aureus RN4220 is “inactive”.
Regarding `CC(C)NC(=O)N(C)C[C@@H]1Oc2c(NC(=O)NC3CCCCC3)cccc2C(=O)N([C@@H](C)CO)C[C@H]1C`, the cytotoxicity call in the assay with HSkMC and in the assay on HepG2 was “inactive” each time. Also, in the assay with S. aureus RN4220, the growth inhibition call is “inactive”.
Regarding `C[C@H](NC(=O)C[C@H]1CC[C@@H](NC(=O)CN2CCOCC2)[C@H](CO)O1)c1ccccc1`, the cytotoxicity call with HSkMC and in the assay on HepG2 was “inactive” each time. Further, the growth inhibition call with S. aureus RN4220 was “inactive”.
As for `CCS(=O)(=O)N1CC[C@]2(CC1)CN(Cc1ccccc1OC)[C@@H](CO)c1c2c2ccc(cc2n1C)OC`, the cytotoxicity call with HSkMC and in the assay on HepG2 was “inactive” in each case. Besides, the growth inhibition call in the assay with S. aureus RN4220 was “inactive”.
Take `C[C@H]1CN([C@@H](C)CO)C(=O)c2cccc(NS(=O)(=O)c3cccs3)c2O[C@@H]1CN(C)Cc1ccc(-c2ccccc2)cc1`: the cytotoxicity call with HSkMC and in the assay with HepG2 was “inactive” in each case. In addition, in the assay on S. aureus RN4220, the growth inhibition call was “inactive”.
As for `C[C@@H]1CN([C@@H](C)CO)C(=O)CCCn2cc(nn2)CO[C@@H]1CN(C)Cc1ccc(C(=O)Nc2ccccc2N)cc1`, the cytotoxicity call in the assay on HSkMC and in the assay on HepG2 was “inactive” each time. In addition, in the assay on S. aureus RN4220, the growth inhibition call is “inactive”.
As to `COc1ccc(S(=O)(=O)N(C)C[C@H]2Oc3c(NC(=O)c4cnccn4)cccc3C(=O)N([C@@H](C)CO)C[C@@H]2C)cc1`, the cytotoxicity call in the assay with HSkMC and with HepG2 was “inactive” each time. Also, the growth inhibition call in the assay with S. aureus RN4220 was “inactive”.
With `CC(C)NC(=O)N(C)C[C@H]1Oc2c(NS(=O)(=O)c3ccc(F)cc3)cccc2C(=O)N([C@@H](C)CO)C[C@@H]1C`, the cytotoxicity call with HSkMC and in the assay with HepG2 was “inactive” throughout. The growth inhibition call in the assay on S. aureus RN4220 was “inactive”.
Regarding `NNC(=O)Oc1ccccc1`, the cytotoxicity call in the assay on HSkMC and in the assay on HepG2 was “inactive” throughout. For the same compound, the growth inhibition call with S. aureus RN4220 is “inactive”.
In the case of `CN1C(=O)NC2(CCNCC2)C1=O`, the cytotoxicity call in the assay with HSkMC and in the assay with HepG2 was “inactive” throughout. Besides, in the assay on S. aureus RN4220, the growth inhibition call was “inactive”.
For the compound `COc1cc(N2CCC(O)CC2)ccc1Nc1cc(Nc2ccccc2S(=O)(=O)C(C)C)c2cc[nH]c2n1`, the cytotoxicity call with HSkMC and in the assay on HepG2 was “inactive” each time. For the same compound, in the assay with S. aureus RN4220, the growth inhibition call is “inactive”.
On to `C[C@H]1CN([C@@H](C)CO)C(=O)Cc2cc(NC(=O)Nc3ccc4c(c3)OCO4)ccc2O[C@H]1CN(C)Cc1ccc(Oc2ccccc2)cc1`, for which the cytotoxicity call in the assay on HSkMC and in the assay with HepG2 was “inactive” throughout. Besides, in the assay on S. aureus RN4220, the growth inhibition call was “inactive”.
`CN(C)C(=O)CSc1nnc(N)s1`: the cytotoxicity call in the assay on HSkMC and with HepG2 was “inactive” in each case. Also, in the assay with S. aureus RN4220, the growth inhibition call is “inactive”.
For the compound `C[C@H]1CN([C@@H](C)CO)C(=O)c2cc(NC(=O)NC3CCCCC3)ccc2O[C@@H]1CN(C)Cc1ccc(-c2ccccc2)cc1`, the cytotoxicity call in the assay on HSkMC was “inactive”. The cytotoxicity call in the assay on HepG2 is “active”. Moreover, in the assay with S. aureus RN4220, the growth inhibition call is “inactive”.
In the case of `COc1ccc(-c2cnc3c(c2)C(=O)N([C@@H](C)CO)C[C@H](C)[C@@H](CN(C)C(=O)Cc2cccnc2)O3)cc1`, the cytotoxicity call in the assay on HSkMC and with HepG2 was “inactive” in each case. Besides, the growth inhibition call in the assay on S. aureus RN4220 was “inactive”.
Take `Cc1ccc(S(=O)(=O)Nc2ccc3c(c2)C(=O)N([C@H](C)CO)C[C@H](C)[C@H](CN(C)S(=O)(=O)c2ccc(C)cc2)OCCCC[C@H](C)O3)cc1`: the cytotoxicity call with HSkMC and with HepG2 was “inactive” in each case. Moreover, in the assay with S. aureus RN4220, the growth inhibition call was “inactive”.
As for `COc1ccc(NC(=O)N(C)C[C@H]2Oc3ncc(Br)cc3C(=O)N([C@H](C)CO)C[C@@H]2C)cc1`, the cytotoxicity call in the assay with HSkMC and in the assay with HepG2 was “inactive” throughout. Also, the growth inhibition call in the assay with S. aureus RN4220 is “inactive”.
As to `O=C(N[C@@H]1CC[C@H](CCNS(=O)(=O)c2ccc(F)cc2)O[C@H]1CO)C1CC1`, the cytotoxicity call with HSkMC and in the assay with HepG2 was “inactive” throughout. Further, the growth inhibition call in the assay on S. aureus RN4220 is “inactive”.
With `C[C@@H]1CN([C@@H](C)CO)C(=O)c2cc(NC(=O)Nc3cccc4ccccc34)ccc2O[C@@H](C)CCCCO[C@@H]1CN(C)C(=O)C1CCCCC1`, in the assay on HSkMC (human skeletal muscle cells), the cytotoxicity call is “active”. In the assay on HepG2, the cytotoxicity call is “inactive”. For the same compound, in the assay with S. aureus RN4220, the growth inhibition call was “inactive”.
